# Measured values reported in PubChem BioAssay AID894 (National Center for Advancing Translational Sciences (NCATS), 2007).
# “And” between values parts separate entries of the source, which are not always exact repeats. Equal entries are not always repeated. In all, about 150,000 compounds went through this assay and about 6,500 (4.3%) were called active. Inconclusive results, whose numbers are uncertain, are shown with a selection of clear calls. Calls follow the shape of the dose curve; as a rule, active = well fitted inhibition curve with a large enough effect (not every such curve was filed as active); inconclusive = small, poorly fitted or top-dose-only effect, or another doubt; inactive = no such curve, though single readings can be large or run the other way. No potency is given beside an inconclusive call; the fits are too rough.
# Target: 15-hydroxyprostaglandin dehydrogenase [NAD(+)] (Homo sapiens) (UniProt P15428)
# Test: qHTS Assay for Inhibitors of HPGD (15-Hydroxyprostaglandin Dehydrogenase)
# Details: purified HPGD, NADH fluorescence kinetic, PGE2 substrate; activity change, negative = inhibition: stronger effect = lower value
# Summary of the method: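 20 nM HPGD preincubated 15 min at room temperature with compound in 50 mM Tris-HCl pH 8, 0.01% Tween 20. Started with 1 mM NAD+ and 30 uM prostaglandin E2; NADH fluorescence (360/450 nm) read 5 times over 30-s intervals, last minus first.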
# % is scaled to controls: 0 for no effect and ±100 for the full control effect; potency is read from the fitted curve at half-maximal effect; tags tell the direction and shape of the fitted curve.
# Chain of UniProt P15428 (P15428 whole entry, looked up): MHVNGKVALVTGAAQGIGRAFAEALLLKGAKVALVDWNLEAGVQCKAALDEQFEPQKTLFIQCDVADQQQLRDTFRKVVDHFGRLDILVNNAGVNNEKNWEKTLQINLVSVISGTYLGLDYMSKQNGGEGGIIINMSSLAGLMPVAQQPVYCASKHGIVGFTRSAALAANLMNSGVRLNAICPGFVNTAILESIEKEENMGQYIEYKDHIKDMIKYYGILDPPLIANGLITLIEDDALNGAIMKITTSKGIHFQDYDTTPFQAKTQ
Structure (SMILES),Potency,"activity change, negative = inhibition"
COc1cc(-c2nn3c(C4CCCCC4)nnc3s2)cc(OC)c1OC,"inconclusive [inhibitor, partial curve]",
CCOC(=O)c1cnc(SCC(=O)c2ccccc2)nc1N,,inactive: -29%
CCOC(=O)c1cnc(SCc2cccc(C)c2)nc1N,"inconclusive [inhibitor, single point]",
C/C(Cn1nnc([N+](=O)[O-])n1)=N\NC(=O)c1ccc(C)cc1,,inactive: -4.21%
Cc1ccc(NC(=O)CCn2nc([N+](=O)[O-])cc2C)nc1,,inactive: 2.61%
CCCCNC(=O)c1cc2c(=O)n3cccc(C)c3nc2n1C,"inconclusive [inhibitor, full curve]",
CCCN(CCO)Cc1ccc(F)c(Br)c1,,inactive: 0.308%
COc1ccc(-c2cc(=O)c3cc(OC)ccc3[nH]2)cc1,"inconclusive [inhibitor, partial curve]",
COCC(=O)Nc1c(C(=O)Nc2ccccc2OC)oc2ccccc12,"inconclusive [inhibitor, single point]",
O=C(c1ccccc1)N1CCN(C2c3cccc4cccc(c34)C2NS(=O)(=O)c2ccccc2)CC1 (configuration not stated),,inactive: -10.9%
Cc1scc(C(=O)NCc2ccco2)c1-c1ccccc1,active: 31.6 µM,
CC(=O)[C@H]1[C@@H]2C(=O)N(c3cccc(Cl)c3)C(=O)[C@@H]2[C@H]2c3ccccc3C=CN21,active: 35.5 µM,
CCC(CO)NC(=O)c1cccc(S(=O)(=O)N2c3ccccc3CC2C)c1 (configuration not stated),,inactive: 1.17%
CCn1c(SCC(=O)Nc2nc(-c3ccc(C)cc3)cs2)nnc1-c1ccccc1O,,inactive: -11.4%
CN1CCN(C2=Cc3ccccc3Sc3cc(F)c(F)cc32)CC1,active: 25.1 µM,
O=C(/C=C/c1ccc2c(c1)OCO2)NCCSCc1ccc(Cl)cc1Cl,"inconclusive [inhibitor, partial curve]",
CCCCOc1ccc(/C=c2\sc3ncnn3c2=O)cc1,"inconclusive [inhibitor, partial curve]",
O=c1cc(N2CCOCC2)oc2c(-c3ccccc3)cccc12,,inactive: -15.6% and inactive: -20.5%
Cc1ccc([N+](=O)[O-])cc1NC(=S)NC(=O)CC(C)(C)C,active: 15.8 µM,
Cc1ccc2nc(SCC(=O)NC(=O)NCc3ccco3)[nH]c2c1,"inconclusive [inhibitor, single point]",
C/C(=N/NC(=O)CSc1ccccn1)c1ccc([N+](=O)[O-])cc1,,inactive: -12.7%
O=C(CCCn1c(=O)[nH]c2cc(Cl)ccc2c1=O)NCCCN1CCCC1=O,,inactive: -10.1%
CCc1cc(C(=O)Cc2cnn(-c3ccccc3)c2)c(O)cc1O,"inconclusive [inhibitor, partial curve]",
CCOC(=O)c1sc2nc(SCC#N)n(CCCN3CCCC3=O)c(=O)c2c1C,"inconclusive [inhibitor, partial curve]",

Structure (SMILES),Potency,"activity change, negative = inhibition"
CCc1nc(N2CCOCC2)c(C#N)c2c1COC(C)(C)C2,"inconclusive [inhibitor, partial curve]",
CNC(=O)C1(C)C=CCN1C(=O)OC (configuration not stated),,inactive: -0.888%
O=C(Nc1nccs1)c1ccc(Br)o1,active: 25.1 µM,
O=C(Nc1sc2c(c1C(=O)c1ccccc1)CCCC2)c1cccnc1,,inactive: -3.85%
CCN(CC)CCn1cnc2c([nH]c3cccc(OC)c32)c1=O,"inconclusive [inhibitor, partial curve]",
Cc1cc(-n2c(=O)c(C#N)cc3c(=O)n4cccc(C)c4nc32)no1,"inconclusive [inhibitor, partial curve]",
Clc1ccc(C2=NNC(=NCC3CCCO3)SC2)cc1 (configuration not stated),"inconclusive [inhibitor, partial curve]",
Cc1cc(C)c2c(=O)[nH]c(=O)n(Cc3ccccc3)c2n1,"inconclusive [inhibitor, partial curve]",
Cc1ccc(O)c(-c2cc(C(=O)Nc3c(C)n(C)n(-c4ccccc4)c3=O)[nH]n2)c1,active: 20 µM,
COc1ccc(N2C(=O)/C(=C/c3cccs3)NC2=S)cc1,active: 3.55 µM,
CC(C)CN(CC(C)C)C(=O)Cc1coc2ccc3ccccc3c12,"inconclusive [inhibitor, single point]",
O=C1CCCC/C1=C/Nc1ccc(S(=O)(=O)Nc2ncccn2)cc1,,inactive: -27.4%
COc1ccccc1CNc1ncnc2ccc(-c3ccc(N(C)C)cc3)cc12,"inconclusive [inhibitor, partial curve]",
COc1ccc(-c2nnc(SC(=O)N3c4ccccc4Sc4ccccc43)o2)cc1,"inconclusive [inhibitor, single point]",
COc1cc(/C=N/NC(=O)Nc2cccc3nsnc23)cc(OC)c1OC,"inconclusive [inhibitor, partial curve]",
COc1ccc(CCNC(=O)C2CCN(c3ccc(N4CCOCC4)nn3)CC2)c(OC)c1,"inconclusive [inhibitor, partial curve]",
CC(CCc1ccccc1)NC(=O)COC(=O)c1cccc2ccccc12 (configuration not stated),"inconclusive [inhibitor, partial curve]",
CC1=C(n2nnc3ccccc32)C(c2ccccc2)C(C#N)=C(N)O1 (configuration not stated),"inconclusive [inhibitor, partial curve]",
Cc1c(C(=O)NC(=S)Nc2ccc(NC(=O)c3cccs3)cc2)oc2ccccc12,active: 2.82 µM,
CN(c1ccc(Cl)cc1)c1cc(=O)n(C)c2ccccc12,active: 7.94 µM,
Cc1noc(C)c1C(=O)N1CCC2(CC1)CN(c1ncccn1)C2,"inconclusive [inhibitor, partial curve, poor fit]",
Cc1nn2c(-c3cccc(NC(=O)CSc4nc5ccccc5o4)c3)nnc2c2ccccc12,"inconclusive [inhibitor, partial curve]",
CC1CCCC(C)N1C(=O)c1cc2ncc(CCCl)cn2n1 (configuration not stated),active: 1 µM,
